The campaign covered roughly 39,000 compounds. About 220 (0.56%) showed activity. Some of the results follow.
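Also: static incubation at 37 °C against the wild-type strain, values averaged over two biological replicates.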

The experiment has as its system Escherichia coli K-12 BW25113. The experiment in a line: relative growth (OD600 normalised to plate interquartile mean) (fraction); higher = less growth inhibition, active = 0.2 or less. Conditions: 50 µM; LB; incubation time: overnight (16-24 h).
Consider `COC(CNC(=O)C1CCN(S(=O)(=O)c2cccc3nsnc23)CC1)OC`, for which the relative growth is inactive: 0.942.

In the case of `O=S(=O)(NCCCCN(C/C=C/c1ccccc1)C/C=C/c1ccccc1)c1cccc2cnccc12`, the relative growth is inactive: 0.966.

Consider `Cc1noc(C)c1S(=O)(=O)Nc1ccc2c(c1)C(=O)N([C@@H](C)CO)C[C@H](C)[C@@H](CN(C)CC1CCCCC1)OCCCC[C@@H](C)O2`, for which the relative growth was inactive: 0.969.

On to `O=C(OC[C@H]1O[C@@H](OC(=O)c2cc(O)c(O)c(O)c2)[C@H](O)[C@@H](OC(=O)c2cc(O)c(O)c(O)c2)[C@@H]1O)c1cc(O)c(O)c(O)c1`, for which the relative growth is inactive: 0.641.

For the molecule `CC(=O)c1c(O)cc(O)cc1O`, the relative growth is inactive: 0.863.

For `C[C@H](CO)N1C[C@H](C)[C@H](CN(C)S(=O)(=O)c2cccs2)Oc2ccc(NC(=O)CCC(F)(F)F)cc2CC1=O`, the relative growth is inactive: 1.04.

With `C[C@@H]1CCCCO[C@H](CN(C)S(=O)(=O)c2ccccc2)[C@H](C)CN([C@@H](C)CO)C(=O)c2cc(NC(=O)Nc3ccc(F)cc3)ccc2O1`, the relative growth is inactive: 1.02.

`COC(=O)[C@@]12O[C@@H]1[C@H](O[C@@H]1O[C@H](CO)[C@@H](O)[C@H](O)[C@H]1O)C[C@H]1[C@]3(C)C[C@@H](c4ccoc4)OC(=O)[C@H]3CC[C@]12C`: the relative growth is inactive: 1.01.

For the molecule `C[C@@H]1CCCCO[C@@H](CN(C)Cc2ccc(Cl)c(Cl)c2)[C@@H](C)CN([C@H](C)CO)C(=O)c2cc(NC(=O)CCCCCC(=O)Nc3ccccc3N)ccc2O1`, the relative growth is inactive: 1.01.

For the molecule `C[C@]1(C(=O)NCc2ccccc2)c2ccccc2C(=O)N(Cc2ccc(OC(F)(F)F)cc2)[C@H]1c1ccc(CO)cc1`, the relative growth is inactive: 0.983.

With `C[C@@H]1C[C@H](C)CN(Cc2nc3c(c(=O)n(C)c(=O)n3C)n2CC(N)=O)C1`, the relative growth is inactive: 1.03.

On to `C[C@H](CO)N1C[C@H](C)[C@H](CN(C)C(=O)Nc2ccc(F)cc2)Oc2ccc(NS(=O)(=O)c3cn(C)cn3)cc2CC1=O`, for which the relative growth is inactive: 1.02.

Consider `CS(=O)(=O)N1[C@@H]2c3ccc(-c4cccc(F)c4)c(=O)n3C[C@H]1[C@H](CO)[C@H]2C(=O)N1CCOCC1`, for which the relative growth was inactive: 0.977.

As for `COc1ccc(-c2cnc3c(c2)C(=O)N([C@H](C)CO)C[C@H](C)[C@H](CN(C)C(=O)Cc2ccccn2)O3)cc1`, the relative growth is inactive: 1.01.

`c1cn(CCN2CCNCC2)cn1`: the relative growth was inactive: 0.838.

Turning to `C[C@@H]1CN([C@H](C)CO)S(=O)(=O)c2ccc(/C=C/c3ccccc3)cc2O[C@H]1CN(C)C(=O)Nc1cc(F)ccc1F`, the relative growth is inactive: 1.02.

Turning to `C=CC[C@@H](CC(=O)N(CCO)Cc1ccccc1)C(=O)N[C@@H](COC(=O)[C@H](CC=C)CC(=O)OC(C)(C)C)Cc1c[nH]c2ccccc12`, the relative growth is inactive: 1.12.

Regarding `C[C@@H]1CCCCO[C@@H](CN(C)S(=O)(=O)c2ccc(Cl)cc2)[C@@H](C)CN([C@@H](C)CO)C(=O)c2cc(NS(=O)(=O)c3cccs3)ccc2O1`, the relative growth was inactive: 1.02.

For `COC(=O)c1ccc2c(c1)no[n+]2[O-]`, the relative growth is inactive: 1.01.

`C[C@@H]1CCCCO[C@@H](CN(C)C(=O)Cc2ccccc2)[C@H](C)CN([C@H](C)CO)C(=O)c2cc(NC(=O)Cc3ccccc3)ccc2O1`: the relative growth is inactive: 1.02.

For `Cc1cc(C(=O)Nc2cccc3c2O[C@@H](CN(C)S(C)(=O)=O)[C@@H](C)CN([C@@H](C)CO)C3=O)n(C)n1`, the relative growth is inactive: 1.

For `CC1(C)CCC2=C(O1)C(=O)c1ccccc1C2=O` [alpha-LAPACHONE], the relative growth is inactive: 1.01.

With `C[C@@H]1CN([C@@H](C)CO)C(=O)c2cc(NC(=O)Nc3ccc(C(F)(F)F)cc3)ccc2O[C@@H]1CN(C)C(=O)NC1CCCCC1`, the relative growth was inactive: 1.03.

On to `COc1ccc(S(=O)(=O)N(C)C[C@@H]2OCc3cn(nn3)CCCC(=O)N([C@H](C)CO)C[C@H]2C)cc1`, for which the relative growth is inactive: 0.983.

With `COCCN1C[C@H](C(=O)O)CC1=O`, the relative growth is inactive: 0.986.

`COc1ccc(S(=O)(=O)Nc2ccc3c(c2)C(=O)N([C@@H](C)CO)C[C@@H](C)[C@H](CN(C)C(=O)Nc2ccc(C(F)(F)F)cc2)OCCCC[C@@H](C)O3)cc1`: the relative growth was inactive: 1.02.

For the molecule `C/C1=C/[C@@]23O[C@@]2(C[C@H](C)[C@H]3O[C@H]2O[C@@H](CO)[C@@H](O)[C@@H](O)[C@@H]2O)C(=O)[C@H](C)[C@H](O)[C@@H]2C([C@H](O)[C@@H]1O)C2(C)C` (stereo partly drawn), the relative growth was inactive: 1.

For the molecule `C[C@H](CO)N1C[C@H](C)[C@@H](CN(C)S(C)(=O)=O)Oc2ccc(NS(=O)(=O)c3ccccc3)cc2C1=O`, the relative growth is inactive: 0.842.

Take `C[C@H]1CN([C@@H](C)CO)C(=O)Cc2cc(NC(=O)CCC(F)(F)F)ccc2O[C@H]1CN(C)S(=O)(=O)c1cccs1`: the relative growth is inactive: 1.01.

Consider `Cc1ccc(S(=O)(=O)N(C)C[C@H]2OCCCC[C@H](C)Oc3ccc(NS(=O)(=O)c4ccc(F)cc4)cc3C(=O)N([C@@H](C)CO)C[C@@H]2C)cc1`, for which the relative growth was inactive: 1.01.

Regarding `COCC(=O)Nc1ccc2c(c1)C(=O)N(C)[C@@H]1CC[C@@H](CC(=O)NC3Cc4ccccc4C3)O[C@@H]1CO2`, the relative growth was inactive: 1.

In the case of `Nc1ccc(C(=O)N2CCOCC2)cc1`, the relative growth was inactive: 1.02.

Turning to `C[C@@H]1CCCCO[C@H](CN(C)C(=O)C2CCCCC2)[C@H](C)CN([C@@H](C)CO)C(=O)c2cc(NC(=O)Nc3ccccc3)ccc2O1`, the relative growth was inactive: 0.994.

For `O=C(O)c1ccc2[nH]cnc2n1`, the relative growth was inactive: 1.01.

On to `CCCNC(=O)N1C[C@H](C)[C@@H](OC)CN(C)C(=O)c2ccc(NS(=O)(=O)CC(F)(F)F)cc2OC[C@@H]1C`, for which the relative growth is inactive: 0.985.

Regarding `C[C@H]1CN([C@@H](C)CO)C(=O)CCCn2nncc2CO[C@@H]1CN(C)S(=O)(=O)c1ccc(-n2cccn2)cc1`, the relative growth was inactive: 0.852.

For `COc1cccc(CNC(=O)C[C@H]2C=C[C@H](NC(=O)C3CCOCC3)[C@H](CO)O2)c1`, the relative growth was inactive: 0.99.

Consider `CCS(=O)(=O)NCC[C@@H]1CC[C@@H](NS(=O)(=O)c2cccc(F)c2)[C@@H](CO)O1`, for which the relative growth was inactive: 1.01.

Regarding `C[C@H](CO)N1C[C@H](C)[C@@H](CN(C)C(=O)c2ccccc2)Oc2cc(C#CC3(O)CCCC3)ccc2S1(=O)=O`, the relative growth was inactive: 1.

Regarding `C[C@@H]1CCCCO[C@H](CN(C)Cc2ccccc2)[C@@H](C)CN([C@@H](C)CO)C(=O)c2cc(NC(=O)CCCCCC(=O)Nc3ccccc3N)ccc2O1`, the relative growth was inactive: 0.998.

Take `COC(=O)C[C@@H]1CC[C@H]2[C@H](COc3ccc(NS(=O)(=O)c4ccccc4Cl)cc3C(=O)N2C)O1`: the relative growth is inactive: 0.998.

As to `CO[C@H]1CN(C)C(=O)c2cc(NC(=O)C3CCOCC3)ccc2OC[C@H](C)N(Cc2cccnc2)C[C@H]1C`, the relative growth was inactive: 0.985.

`C[C@@H]1CN([C@H](C)CO)C(=O)c2cc(C#Cc3cccc(F)c3)cnc2O[C@H]1CN(C)CC1CCOCC1`: the relative growth is inactive: 0.984.

Turning to `COc1ccc(NC(=O)N(C)C[C@H]2OCCCC[C@@H](C)Oc3ccc(NS(=O)(=O)c4ccc(Cl)cc4)cc3C(=O)N([C@@H](C)CO)C[C@@H]2C)cc1`, the relative growth was inactive: 0.998.

Consider `CC(=O)OC1(C(C)=O)CCC2C3C=C(C)C4=CC(=O)CCC4(C)C3CCC21C` (stereo not drawn), for which the relative growth was inactive: 0.977.

Turning to `Cc1noc(C)c1NC(=O)Nc1ccc2c(c1)C(=O)N([C@@H](C)CO)C[C@@H](C)[C@H](CN(C)S(=O)(=O)c1ccccc1)O2`, the relative growth was inactive: 0.999.

Turning to `Cc1noc(C)c1NC(=O)N(C)C[C@@H]1OCCCC[C@@H](C)Oc2ccc(NS(=O)(=O)c3ccc(F)cc3)cc2C(=O)N([C@@H](C)CO)C[C@H]1C`, the relative growth is inactive: 0.983.

Turning to `CN1CCCN(C[C@@H]2CN(C(=O)Cn3cccn3)C[C@@H]2CO)CC1`, the relative growth is inactive: 1.

As to `COCC(=O)Nc1ccc2c(c1)C(=O)N(C)C[C@H](OC)[C@H](C)CN(C(=O)Cc1cccnc1)[C@@H](C)CO2`, the relative growth is inactive: 0.995.

`C[C@@H]1CN([C@@H](C)CO)C(=O)c2cccc(NS(=O)(=O)c3ccc(Cl)cc3)c2O[C@H]1CN(C)C(=O)Nc1ccc(C(F)(F)F)cc1`: the relative growth is inactive: 1.01.

Regarding `Cc1ccccc1/C=C(\C#N)c1nc(-c2ccccc2)cs1`, the relative growth is inactive: 1.01.

For `O=C(C[C@H]1C[C@@H]2c3cc(NC(=O)Nc4ccccc4)ccc3O[C@@H]2[C@@H](CO)O1)NCCN1CCCCC1`, the relative growth was inactive: 0.994.

For the molecule `C[C@@H]1CCCCO[C@@H](CN(C)C(=O)c2ccccc2)[C@@H](C)CN([C@@H](C)CO)C(=O)c2cc(NC(=O)Nc3ccc4c(c3)OCO4)ccc2O1`, the relative growth is inactive: 0.996.

Turning to `OCC1c2ccccc2-c2ccccc21`, the relative growth is inactive: 0.986.

For `O=C(O)C1(O)CC(O)C(O)C(O)C1` (stereo not drawn), the relative growth was inactive: 0.994.

Consider `Cc1csc2ncnc(Cl)c12`, for which the relative growth is inactive: 0.974.

For the molecule `COCC#Cc1ccc2c(c1)O[C@H](CN(C)S(=O)(=O)c1cccc(F)c1)[C@H](C)CN([C@H](C)CO)S2(=O)=O`, the relative growth was inactive: 1.02.

As to `C[C@@H]1CN([C@H](C)CO)S(=O)(=O)c2ccc(C#C[C@@H](C)O)cc2O[C@@H]1CN(C)C`, the relative growth was inactive: 0.978.

For the molecule `O=C(NC1CC1)c1n[nH]c(=O)c2ccccc12`, the relative growth was inactive: 1.02.

In the case of `C=CC[C@]1(C(=O)NCCN2CCOCC2)COC(c2ccc(OCCCO)cc2)=N1`, the relative growth was inactive: 0.92.

As to `C[C@H](CO)N1C[C@H](C)[C@@H](CN(C)CC2CC2)Oc2ccc(NS(=O)(=O)c3ccccc3)cc2CC1=O`, the relative growth was inactive: 0.984.

For the molecule `C[C@@H]1CN([C@H](C)CO)C(=O)c2cccc(NS(=O)(=O)c3ccc(Cl)cc3)c2O[C@H]1CN(C)Cc1ccc(-c2ccccc2)cc1`, the relative growth was inactive: 0.922.

Take `Cc1ccc(S(=O)(=O)Nc2ccc3c(c2)C(=O)N([C@@H](C)CO)C[C@H](C)[C@@H](CN(C)C(=O)c2ccccc2)OCCCC[C@H](C)O3)cc1`: the relative growth is inactive: 1.

Values taken from the supplement of paper PMC9446081.
